Assay results taken from the supplement of paper PMC10441789.
The list shows a part of the results. Antibody binding of pooled human sera (four to six donors per pool; dilution not stated) to peptides of the Trypanosoma cruzi antigen TSSA on microarrays. Quantile-normalised fluorescence in arbitrary units, mean of duplicate arrays; higher = more binding. No active / inactive call. The uninfected pools are read here as the healthy donors of the same country. The strongest signals lie near the top of the scale (about 60,000).

How the values were obtained:
Experiment in all cases: antibody binding signal (normalised fluorescence) (arbitrary fluorescence units); higher = stronger serum antibody binding to peptide
[1] = tested on: pooled sera of chronic Chagas disease patients, Argentina
Description: (§1)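 Microarray of 15-residue peptides over residues 30-55 of Trypanosoma cruzi TSSAII, each with 1 to 10 substitutions at naturally variable positions, probed with one serum pool per country.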

[2] = tested on: pooled sera of chronic Chagas disease patients, Bolivia
Description: as §1

[3] = tested on: pooled sera of chronic Chagas disease patients, Brazil
Description: as §1

[4] = tested on: pooled sera of chronic Chagas disease patients, Colombia
Description: as §1

[5] = tested on: pooled sera of chronic Chagas disease patients, Mexico
Description: as §1

[6] = tested on: pooled sera of chronic Chagas disease patients, USA
Description: as §1

[7] = tested on: pooled sera of uninfected people, Argentina
Description: as §1

[8] = tested on: pooled sera of uninfected people, Bolivia
Description: as §1

[9] = tested on: pooled sera of uninfected people, Brazil
Description: as §1

[10] = tested on: pooled sera of uninfected people, Colombia
Description: as §1

[11] = tested on: pooled sera of uninfected people, Mexico
Description: as §1

[12] = tested on: pooled sera of uninfected people, USA
Description: as §1

| Sequence | antibody binding signal [1] | antibody binding signal [2] | antibody binding signal [3] | antibody binding signal [4] | antibody binding signal [5] | antibody binding signal [6] | antibody binding signal [7] | antibody binding signal [8] | antibody binding signal [9] | antibody binding signal [10] | antibody binding signal [11] | antibody binding signal [12] |
| --- | --- | --- | --- | --- | --- | --- | --- | --- | --- | --- | --- | --- |
| TDKKTATGETPSQPG | 1170 | 2840 | 30300 | 399 | 242 | 7230 | 256 | 437 | 433 | 211 | 245 | 223 |
| GKEKKTAAGEAPSPS | 1110 | 231 | 342 | 1150 | 2010 | 5080 | 162 | 75.5 | 88.9 | 290 | 93.4 | 55.2 |
| ENKTATGGTPSQPGA | 467 | 2430 | 1210 | 2040 | 451 | 1210 | 575 | 153 | 613 | 419 | 2070 | 212 |
| ENKPATGEAPSQSGA | 50800 | 47600 | 49900 | 325 | 638 | 48700 | 1120 | 848 | 350 | 145 | 226 | 208 |
| PSGTDKKPAAGGTPS | 3330 | 1010 | 26800 | 14500 | 4210 | 3490 | 205 | 652 | 1150 | 289 | 1680 | 280 |
| ENKTAAGGAPSQSGA | 293 | 1600 | 708 | 5340 | 586 | 592 | 331 | 246 | 668 | 180 | 516 | 233 |
| GKDNKPAAGETPSPP | 843 | 268 | 16800 | 1060 | 1580 | 3840 | 298 | 809 | 136 | 228 | 442 | 356 |
| SGKEKKPATGEAPSQ | 46200 | 11100 | 42700 | 2030 | 4720 | 37100 | 1030 | 511 | 108 | 211 | 102 | 302 |
| GTEKKAATGETPSQP | 3340 | 2770 | 37800 | 678 | 925 | 11700 | 595 | 635 | 398 | 854 | 181 | 199 |
| GKDNKTATGEAPSPP | 14700 | 21500 | 16900 | 4980 | 1770 | 20600 | 279 | 213 | 179 | 314 | 96.2 | 122 |
| GKENKAATGGTPSPP | 5860 | 2040 | 14400 | 9830 | 9190 | 20300 | 329 | 113 | 148 | 141 | 148 | 182 |
| KKTATGGTPSPPGAS | 372 | 267 | 211 | 1150 | 224 | 1230 | 264 | 156 | 136 | 254 | 73.6 | 335 |
| GTENKPATGETPSPS | 44800 | 35100 | 35400 | 1130 | 2540 | 29000 | 488 | 1170 | 361 |  | 1760 | 2140 |
| KAATGGAPSQSGASS | 655 | 195 | 373 | 207 | 693 | 236 | 409 | 168 | 112 | 102 | 914 | 164 |
| KKPAAGGTPSQPGAS | 171 | 201 | 244 | 1660 | 138 | 413 | 339 | 219 | 718 |  | 145 | 327 |
| TEKKAATGGAPSQPG | 2120 | 398 | 7570 | 1670 | 1710 | 2600 | 511 | 1210 | 170 | 1230 | 240 | 261 |
| GKENKPAAGGTPSQS | 811 | 446 | 2200 | 1750 | 2340 | 6480 | 781 | 297 | 552 | 186 | 226 | 136 |
| DKKPATGEAPSQPGA | 48300 | 43900 | 47000 | 221 | 439 | 43700 | 941 | 695 | 304 | 298 | 286 | 206 |
| TPPSGTDNKTAAGGA | 25800 | 36500 | 43900 | 586 | 7440 | 8000 | 2070 | 589 | 1950 | 305 | 337 | 653 |
| GTEKKTAAGEAPSPP | 732 | 395 | 1050 | 915 | 802 | 7650 | 149 | 631 | 360 | 1410 | 153 | 125 |
